# In PubChem BioAssay AID1347165 (National Center for Advancing Translational Sciences (NCATS), 2019):
# About 5,700 (2.6%) of roughly 220,000 compounds were called active. Inconclusive results, whose numbers are uncertain, are shown with a selection of clear calls. Calls come from the whole dose curve; as a rule, active = well fitted inhibition curve with a large enough effect; inconclusive = small, poorly fitted or top-dose-only effect; inactive = no such curve, though single readings can be large or run the other way. A potency beside an inconclusive call is a rough fit, not a confirmed value.
# Target: Lysine-specific demethylase 5B (Homo sapiens) (UniProt Q9UGL1)
# Test: Primary screen for KDM5B Histone Demethylases FDH-coupled qHTS; note: nearly all actives have a fitted effect of over 70% in size
# Details: FDH-coupled NADH fluorescence (FDH is formaldehyde dehydrogenase); series mostly up to 57.7 µM
# How it was run: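 Inhibition is measured as reduced NADH fluorescence generation from FDH coupling to formaldehyde release. Truncated KDM5BΔAP at 200 nM final acts on H3K4me3 peptide (12.5 µM in substrate mix) in pH 7.5 HEPES buffer with Tween-20, 30 min, room temperature.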
# Potency is the fitted concentration of half-maximal effect; tags give direction and shape of the fitted curve.
# Chain of UniProt Q9UGL1 (Q9UGL1 whole entry, looked up): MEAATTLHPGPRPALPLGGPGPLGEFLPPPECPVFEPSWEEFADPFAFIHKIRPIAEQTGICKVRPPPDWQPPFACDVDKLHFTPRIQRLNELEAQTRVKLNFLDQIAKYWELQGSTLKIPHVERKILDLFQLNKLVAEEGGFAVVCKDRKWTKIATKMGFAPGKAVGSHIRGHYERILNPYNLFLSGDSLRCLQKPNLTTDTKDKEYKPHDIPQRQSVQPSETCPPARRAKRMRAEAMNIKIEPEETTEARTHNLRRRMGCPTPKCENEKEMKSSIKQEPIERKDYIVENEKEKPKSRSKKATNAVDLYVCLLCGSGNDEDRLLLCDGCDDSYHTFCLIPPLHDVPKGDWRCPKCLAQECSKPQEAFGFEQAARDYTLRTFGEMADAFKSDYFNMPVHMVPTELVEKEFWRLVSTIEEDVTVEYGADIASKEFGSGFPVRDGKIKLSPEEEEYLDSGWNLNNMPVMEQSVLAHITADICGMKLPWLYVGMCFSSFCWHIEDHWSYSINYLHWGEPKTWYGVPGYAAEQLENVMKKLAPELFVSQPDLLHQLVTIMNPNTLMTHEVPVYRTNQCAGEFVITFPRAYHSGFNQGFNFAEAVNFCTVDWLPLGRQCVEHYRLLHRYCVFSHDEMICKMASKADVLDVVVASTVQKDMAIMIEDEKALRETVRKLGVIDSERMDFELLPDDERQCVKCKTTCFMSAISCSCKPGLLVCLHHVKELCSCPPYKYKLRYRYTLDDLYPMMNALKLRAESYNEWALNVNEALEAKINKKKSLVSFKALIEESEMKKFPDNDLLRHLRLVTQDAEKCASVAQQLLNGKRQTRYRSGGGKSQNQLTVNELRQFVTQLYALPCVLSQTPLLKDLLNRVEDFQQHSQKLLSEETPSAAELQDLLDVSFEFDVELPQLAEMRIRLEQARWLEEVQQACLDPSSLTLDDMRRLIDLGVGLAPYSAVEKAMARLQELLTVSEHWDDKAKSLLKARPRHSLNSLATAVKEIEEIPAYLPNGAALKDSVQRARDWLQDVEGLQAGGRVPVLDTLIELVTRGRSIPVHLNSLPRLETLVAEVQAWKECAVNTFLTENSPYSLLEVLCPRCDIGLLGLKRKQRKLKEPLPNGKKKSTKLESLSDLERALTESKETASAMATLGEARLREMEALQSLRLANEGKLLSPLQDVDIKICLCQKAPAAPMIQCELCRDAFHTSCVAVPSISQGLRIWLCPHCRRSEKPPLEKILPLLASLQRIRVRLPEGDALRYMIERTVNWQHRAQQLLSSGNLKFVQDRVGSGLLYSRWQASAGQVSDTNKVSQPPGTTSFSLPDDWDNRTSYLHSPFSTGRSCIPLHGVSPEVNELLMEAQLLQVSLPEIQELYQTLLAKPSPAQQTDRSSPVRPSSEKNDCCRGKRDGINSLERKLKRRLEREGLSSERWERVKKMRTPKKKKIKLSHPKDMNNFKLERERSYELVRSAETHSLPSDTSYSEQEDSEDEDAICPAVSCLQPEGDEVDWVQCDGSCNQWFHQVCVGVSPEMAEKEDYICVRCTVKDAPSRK
row,Structure (SMILES),Potency
1,O=C(Cn1c(=O)c(CCC(=O)NC2CC2)nc2ccccc21)Nc1cccc(C(F)(F)F)c1,"inconclusive: 31.6 µM [inhibitor, partial curve, poor fit]"
2,Fc1cccc(-c2nc3cc(Cl)ccc3o2)c1,inactive
3,O=C(Cn1cc(S(=O)(=O)N2CCN(c3ccccc3F)CC2)c2ccccc2c1=O)Nc1ccc(F)cc1Cl,"inconclusive: 7.94 µM [inhibitor, partial curve, poor fit]"
4,COc1cc2c(C(=O)N3CCN(c4cc(Cl)ccc4C)CC3)cn(CC(C)C)c(=O)c2cc1OC,"inconclusive: 10 µM [inhibitor, partial curve, poor fit]"
5,COc1ccc(S(=O)(=O)NCCc2sc(-c3cccc(F)c3)nc2C)cc1,"inconclusive: 25.1 µM [inhibitor, partial curve, poor fit]"
6,O=[S+]1([O-])NC2(CCN(Cc3c(F)cccc3Cl)C2)COc2ncccc21 (stereo not drawn),"inconclusive: 0.794 µM [inhibitor, full curve, poor fit]"
7,CN1c2cc(C(=O)NCc3ccccc3)ccc2C(=O)N2CCCC21 (stereo not drawn),"inconclusive: 28.2 µM [inhibitor, partial curve, poor fit]"
8,CCCCN(C1CCS(=O)(=O)C1)S(=O)(=O)c1ccc(OC)cc1 (stereo not drawn),inactive
9,O=C(NCCC1CCN(C(=O)Nc2ccccc2F)CC1)c1cccs1,inactive
10,Cc1ccc(CN(C)C2CCc3ccccc32)cc1 (stereo not drawn),inactive
11,O=C(c1cccnc1)N1CCCC2(C1)C(=NC1CCCC1)NC(=O)N2c1cc(F)cc(F)c1 (stereo not drawn),inactive
12,O=C(Nc1ccc(Cl)cc1)c1nc2c(o1)CCN(Cc1ccc3cn[nH]c3c1)CC2,active: 35.5 µM
13,COc1ccc(S(=O)(=O)NCCc2sc(-c3ccccc3)nc2C)cc1F,"inconclusive: 22.4 µM [inhibitor, partial curve, poor fit]"
14,c1cc(-c2nsc(-c3ccncc3)n2)ccn1,"inconclusive: 31.6 µM [inhibitor, single point]"
15,COc1ccc(C(NC(=O)c2oc3ccc(F)cc3c2C)c2nccn2C)cc1 (stereo not drawn),inactive
16,CCOc1ccccc1C1Nc2ccccc2-n2cc3c(=O)n(C)c(=O)n(C)c3c21 (stereo not drawn),"inconclusive: 1.78 µM [inhibitor, full curve, poor fit]"
17,CCOc1cc(C#N)ccc1OCc1nc(-c2ccc(Br)cc2)no1,inactive
18,Cc1cc(C(=O)N2CCC(N3CC4CC(C3)[C@H]3CCCC(=O)N3C4)CC2)n(C)n1 (stereo partly drawn),"inconclusive: 12.6 µM [inhibitor, partial curve]"
19,Cc1ccc(Cn2c(CN3CCC(C(=O)NCC(C)c4ccccc4)CC3)cc3ccccc32)cc1 (stereo not drawn),"inconclusive: 28.2 µM [inhibitor, single point]"
20,Fc1ccccc1-c1nnc(SCc2ccccc2Br)n1C1CC1,inactive
21,N#Cc1ccc(Oc2cccc3ccccc23)cc1C#N,"inconclusive: 39.8 µM [inhibitor, single point]"
22,Cc1cccc(CN2CCNc3cnc(Oc4ccccc4)cc3C2)c1,"inconclusive: 35.5 µM [inhibitor, single point]"

row,Structure (SMILES),Potency
1,Cn1c(=O)c2c(n3c4ccccc4nc13)NC(=O)CC2c1cccc(Cl)c1 (stereo not drawn),"inconclusive: 31.6 µM [inhibitor, partial curve, poor fit]"
2,CCn1c(C2CCCNC2)nn(Cc2ccc(C(=O)NC)o2)c1=O (stereo not drawn),"inconclusive: 4.47 µM [inhibitor, full curve]"
3,C=C(C)CSc1nc2c(c(=O)n(C)c(=O)n2C)n1CCCc1ccccc1,inactive
4,Cc1ccc2c(n1)N(C)[C@H](CO)CCN(Cc1ccc(Cl)cc1)C2,"inconclusive: 31.6 µM [inhibitor, single point]"
5,COc1ccc(C2C(c3ccccc3)=C(O)C(=O)N2CCc2ccccc2)cc1OC (stereo not drawn),"inconclusive: 22.4 µM [inhibitor, single point]"
6,O=C(Cc1cccs1)N1CCCn2cc(-c3ccccc3)nc21,"inconclusive: 14.1 µM [inhibitor, partial curve, poor fit]"
7,COc1ccc(NCc2cc3cc4c(cc3n(CC(=O)Nc3ccccc3)c2=O)OCO4)cc1,"inconclusive: 4.47 µM [inhibitor, full curve, poor fit]"
8,COc1cc2c(cc1OC)C1=CC3(C(=O)Nc4cc5c(cc43)OCCO5)C(C#N)=C(N)N1CC2 (stereo not drawn),"inconclusive: 39.8 µM [inhibitor, single point]"
9,O=C(NCc1cnn(Cc2ccccc2)c1)c1ccc2oc(-c3cccc(F)c3)nc2c1,"inconclusive: 39.8 µM [inhibitor, partial curve, poor fit]"
10,Cc1noc(C)c1CCCNC(=O)c1ccc(NC[C@H]2C[C@H]3C=C[C@H]2C32CC2)nc1,"inconclusive: 28.2 µM [inhibitor, partial curve, poor fit]"
11,CCCN1CCN(CCCN)CC1,inactive
12,COc1ccc(Nc2nc(N3CCN(c4ccccc4)CC3)c3cnn(C)c3n2)c(OC)c1,inactive
13,COc1cccc(CNC(=O)Cn2ccn3nc4c(c3c2=O)CCCC4)c1OC,"inconclusive: 35.5 µM [inhibitor, single point]"
14,COc1cccc(CNC(=O)CN2C(=O)NC3(CCCCC3)C2=O)c1OC,inactive
15,COc1ccccc1CN(Cc1ccco1)c1cnc(S(C)(=O)=O)nc1C(=O)Nc1ccccc1Cl,"inconclusive: 4.47 µM [inhibitor, partial curve, poor fit]"
16,O=C(C1CC1)N1CCC(c2nn(-c3ccccc3)c(=O)[nH]2)CC1,inactive
17,CNC(=O)CCn1ncc2cc(OCc3ccccc3-c3cccc(C)c3)ccc21,active: 35.5 µM
18,COc1ccc(NC(=O)c2ccc(-c3ncc4cnc(C5=CCOCC5)cn34)cc2)cn1,active: 28.2 µM
19,O=C(Nc1ccc(Cl)cc1)c1cc(S(=O)(=O)N2CCCc3ccccc32)ccc1F,"inconclusive: 17.8 µM [inhibitor, partial curve, poor fit]"
20,CCOc1ccc(/C=N/OC(=O)c2ccccc2I)cc1,inactive
21,COCCNC(=O)Cc1nc(-c2cccs2)oc1C,"inconclusive: 25.1 µM [inhibitor, partial curve, poor fit]"
